Experimental findings from the supplement of paper PMC10338343 are described below.

± gives the standard deviation. Only a part is listed here, and it is no random draw. Some results are limits rather than exact numbers.

For the assay, the system named is MIWI (PIWIL1) piRISC loaded with L1MC piRNA (30 nt). The experiment in a line: pre-steady-state target cleavage rate (min^-1); MIWI and MILI are mouse PIWI proteins and EfPiwi is from a freshwater sponge; tags in brackets are library labels; higher = faster piRNA-guided slicing of the target. The following applies: guide: L1MC piRNA 5'p-UAACUAAAUACUAUGCAAGCUGUAGGUCCU; auxiliary factor: 500 nM mouse GTSF1. Summed up: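 With or without 500 nM GTSF1 partner protein, 1 nM active affinity-purified piRISC carrying one synthetic guide was mixed with 0.1 nM transcribed, DNA-blocked target RNA library in HEPES–potassium acetate buffer at 33 °C for 0–8 or 0–960 min. Uncleaved targets were sequenced and normalised to depth and to weakly complementary targets, three trials were pooled, and k3 was capped at 0.0001 min^-1. The pre-steady-state cleavage rate came from a burst-and-steady-state fit.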
As to UCCUGGAUGUCGAAGCAUAGUAUUUCAGUUA, the “pre-steady-state target cleavage rate” value is 0.00491 ± 0.0043.
On to AGGACCUACAGCUUGCAUAGAUAUUAGUUA, for which the “pre-steady-state target cleavage rate” value was determined as 0.187 ± 0.06.
To UCCUGGAUGAGCUUGCAUAGUAAUAAGUUA belongs 0.00942 ± 0.0042; to UCCACCUACAGCUUGGUUAGUAUUUACAAA, 0.0513 ± 0.013.
For UCCUGGAUGAGGAUGCAUAGUAUUUAGUUA the value was 0.0231 ± 0.006; for UGGACCUACAGCUUCCAUAGUAUUAAGUUA, 0.00435 ± 0.0038; for UCCUCCUACAGCUUGCAUAGUAAAUAGUAA, 0.267 ± 0.045.
To UCGACCUACAGCUUGGUAAGUAUUUAGUAA belongs 0.0361 ± 0.015; to UCCUGGAUGUCGAACCAUACGUAUUUAGUUA, less than 0.0001; to UCCUGGAUGUCGUUGCAUCGUAUUUAGUUA, 0.00332 ± 0.003.
With UCCUGGUACAGCUUGCAAUCUAUUUAGAAA, the “pre-steady-state target cleavage rate” value was 0.00478 ± 0.0045.
To UCCACCUACAGCUUGCAUAGUAUUAACAAA belongs 0.375 ± 0.056; to UCCUGGAUGUCGUUGCAUAGUAUUUAAGUUA, 0.0172 ± 0.0049.
In the case of UCCUGGAACUCCUUGCAUAGUAUUUUCAAA, the “pre-steady-state target cleavage rate” value is 0.0385 ± 0.0072.
For UCCACCUACAGCAAGCAUAGUAUUUACAAA the value was 0.29 ± 0.047; for UCCUGGAUGUCCUUGCAUUGUAUUUACUUA, 0.00619 ± 0.0038.
To UGCACCUACAGCUUGCAUAGUAUUUUCAAA belongs 0.238 ± 0.032; to UCCACCUACAGCUUGCAUUGUAUUUACAAA, 0.112 ± 0.024; to UCCUGGAUGUGCUUGCAUAGUAUUUAUUA, 0.0179 ± 0.0058.
For UCCUGCUACAGCUUGCAUAGUAUUAUGUAA the value was 0.153 ± 0.042; for UGGACCUACAGCUUGCACUAGUAUUUAGUUA, 0.00887 ± 0.0051; for UCCUGGAUGUCCAUGCAAAGUAUUUAGUUA, 0.00607 ± 0.0045.
As for UCCUGCUACACGUUGCAUAGUAUUUACAAA, the “pre-steady-state target cleavage rate” value worked out at 0.142 ± 0.024.
Take AGGACCUACAGCUUCGUUAGUAUUUAGAAA: the “pre-steady-state target cleavage rate” value worked out at 0.00714 ± 0.0039.
